Measurements taken from article PMC4336329 (PLoS ONE, 2015).
Hit rate of the full screen: of about 310,000 compounds, about 14,000 (4.5%) showed an effect of 50% or more. The effect is printed as a negative number. The list shows a part of the results.

target: human ether-à-go-go-related gene (hERG) potassium channel (human, UniProt Q12809); assay: primary screen, population patch clamp on CHO cells stably expressing hERG
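Further: peak tail current of the secondary pulse compared with the same well before compound.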

Sequence of human ether-à-go-go-related gene (hERG) potassium channel (Q12809 whole entry, looked up): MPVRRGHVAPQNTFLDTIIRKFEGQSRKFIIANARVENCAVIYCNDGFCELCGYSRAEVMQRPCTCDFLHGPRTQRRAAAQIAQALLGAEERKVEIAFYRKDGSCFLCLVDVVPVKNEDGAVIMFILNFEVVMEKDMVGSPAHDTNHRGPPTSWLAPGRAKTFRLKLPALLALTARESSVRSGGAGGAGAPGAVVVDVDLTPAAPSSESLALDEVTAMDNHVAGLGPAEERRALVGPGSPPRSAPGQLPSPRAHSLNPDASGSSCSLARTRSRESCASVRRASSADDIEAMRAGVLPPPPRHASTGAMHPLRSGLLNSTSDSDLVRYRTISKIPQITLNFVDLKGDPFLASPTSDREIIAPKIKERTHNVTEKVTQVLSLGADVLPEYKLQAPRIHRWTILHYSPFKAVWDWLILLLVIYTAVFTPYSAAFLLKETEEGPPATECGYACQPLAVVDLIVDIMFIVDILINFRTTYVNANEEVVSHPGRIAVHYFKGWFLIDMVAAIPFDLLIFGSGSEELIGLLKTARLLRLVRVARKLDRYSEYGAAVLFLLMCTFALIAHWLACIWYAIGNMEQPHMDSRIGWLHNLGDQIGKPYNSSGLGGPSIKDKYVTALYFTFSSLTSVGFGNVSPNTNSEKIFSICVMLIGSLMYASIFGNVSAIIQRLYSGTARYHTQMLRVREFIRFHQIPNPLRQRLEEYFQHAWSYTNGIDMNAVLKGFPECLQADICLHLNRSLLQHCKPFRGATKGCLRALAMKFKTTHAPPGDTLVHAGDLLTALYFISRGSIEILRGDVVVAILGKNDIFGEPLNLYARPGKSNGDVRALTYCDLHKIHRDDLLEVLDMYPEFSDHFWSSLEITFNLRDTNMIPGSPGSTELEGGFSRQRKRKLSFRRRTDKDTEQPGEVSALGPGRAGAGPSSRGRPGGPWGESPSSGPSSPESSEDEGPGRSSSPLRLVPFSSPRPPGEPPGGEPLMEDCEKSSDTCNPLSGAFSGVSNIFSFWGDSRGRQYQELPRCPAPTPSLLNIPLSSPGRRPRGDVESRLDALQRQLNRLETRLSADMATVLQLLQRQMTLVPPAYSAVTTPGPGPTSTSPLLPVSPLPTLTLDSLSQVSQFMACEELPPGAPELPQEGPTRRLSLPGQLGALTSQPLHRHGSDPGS

Row | Structure (SMILES) | hERG current change (%, negative = inhibition) at 10uM [%]
1 | Cc1ccc(C)n1-c1ccc(N2CCOCC2)cc1 | 0.152
2 | Cc1ccc(C(=O)NC2CC3CCCC(C2)N3C(=S)NCc2ccco2)cc1 (centres unmarked) | 11.8
3 | Cc1cc(NS(=O)(=O)c2ccc(CC(C)C)cc2)no1 | 0.997
4 | O=S(=O)(Cc1ccccc1)N1CCN(C2Cc3ccccc3C2)CC1 | -8.38
5 | Clc1ccc2c(NCc3ccco3)ncnc2c1 | -6.16
6 | COc1ccccc1NC(=O)c1cc(S(=O)(=O)N2CCCCCC2)ccc1F | 4.66
7 | O=C(NCc1cccnc1)c1cccc(S(=O)(=O)Nc2cccc(Cl)c2)c1 | -10.8
8 | CC1C(c2cccs2)=[N+]([O-])C(C)(C(=O)c2ccc(F)cc2)N1O (centres unmarked) | 17.6
9 | COc1ccc(C(=O)COC(=O)c2ccc3c(c2)NC(=O)CS3)c(OC)c1 | 7.09
10 | COc1cc(OC)c2c(c1)O[C@@H](c1ccc(OC)c(OC)c1)[C@H](O)C2 | 12.7
11 | COc1ccccc1N1CCN(C(=O)COc2cccc(C)c2C)CC1 | 0.436
12 | CN(C(=O)CN(C)S(=O)(=O)c1ccc(F)cc1)c1c(N)n(Cc2ccccc2)c(=O)[nH]c1=O | -18.8
13 | O=C(Nc1ccc(C(F)(F)F)cc1)c1cc(-c2cccnc2)nc2ccc(Br)cc12 | -16.2
14 | O=C(Nc1cccc(C(F)(F)F)c1)N1CCC(c2nc(-c3ccc(F)cc3)no2)CC1 | -28.7
15 | O=C(c1c(F)cccc1F)N(Cc1ccccn1)C1CCCC1 | 14.1
16 | COc1ccc(-n2ncc(C(C)NS(=O)(=O)c3ccc(C(C)=O)cc3)c2C)cc1 (centres unmarked) | 9.78
17 | O=C(Cc1ccc(S(=O)(=O)N2CCOCC2)s1)N1CCN(c2ccc(C(F)(F)F)cc2[N+](=O)[O-])CC1 | -54.8
18 | Cc1noc(NS(=O)(=O)c2ccc(NC(=O)C(C)(C)C)cc2)c1C | 19.2
19 | Cc1cccc(C(=O)NNS(=O)(=O)c2ccccc2[N+](=O)[O-])c1 | 1.16

Row | Structure (SMILES) | hERG current change (%, negative = inhibition) at 10uM [%]
20 | CN1OC(c2ccccc2)=C(CO)C1c1ccccc1 (centres unmarked) | 6.52
21 | COCCCn1c(=O)c2ccccc2n(Cc2ccccc2)c1=O | -6.14
22 | CC1(CCc2ccccc2)NC(=O)N(CC(=O)N2CC(=O)Nc3ccccc32)C1=O (centres unmarked) | 7.19
23 | CC(C)OC(=O)CN1C(=O)C(C)(C)Oc2ccc(C(=O)NC3CC3)cc21 | -4.13
24 | Cc1ccc(NC(=O)CN(C)C(=O)CCOc2ccccc2C)cc1 | -14
25 | CC(=O)NS(=O)(=O)c1ccc(NC(=O)CCC(=O)Oc2ccc(C)cc2)cc1 | 7.56
26 | COC(=O)CSc1nc2ccccc2nc1SCC(=O)OC | 4.61
27 | NC(=O)CSc1nnc(-c2ccc([N+](=O)[O-])cc2)o1 | -2.83
28 | COc1ccccc1-c1nnc(SCC(=O)N2CC(C)CC(C)C2)o1 (centres unmarked) | -1.96
29 | COC(=O)C1=C(C(=O)c2ccc(C)cc2)C(c2ccccc2)n2nnnc2N1 (centres unmarked) | -1.32
30 | CSc1cccc(NC(=O)NCc2cccc(CNC(=O)Nc3cccc(SC)c3)c2)c1 | 10.2
31 | COc1cnc(-c2ccccn2)nc1Sc1ccc(F)cc1 | 5.49
32 | CCCC(=O)N1CCc2cc(-c3nc(N)sc3C)ccc21 | 5.78
33 | O=C(c1ccc(S(=O)(=O)N2CCOCC2)cc1)N(c1ccccn1)C1CCCCC1 | -6.32
34 | CC(C)(C)OC(=O)N[C@H](Cc1ccccc1)C(=O)N1CCC(C(=O)O)CC1 | 9.08
35 | CCN1CCc2c(OCC(=O)Nc3ccc(C)cc3)cccc2C1=O | -6.47
36 | NC(=O)N/N=C/C=C/c1ccc(F)cc1 | 8.5
37 | CCN(CC)S(=O)(=O)c1ccc(C(=O)Nc2nnc(CSC)o2)cc1 | 14.1
38 | Cc1ccccc1C(=O)Nc1ccc2c(c1)OCO2 | 6.11

Row | Structure (SMILES) | hERG current change (%, negative = inhibition) at 10uM [%]
39 | CCCCNC(=O)Cc1ccc(Br)cc1 | 8.76
40 | COCCNc1nc(C)c(C(C)=O)s1 | 19
41 | O=C(/C=C/c1ccc(F)cc1)NCc1cccs1 | -21.9
42 | COc1cc(CCc2ccc3c(c2)OCO3)oc(=O)c1 | 4.95
43 | CC(C)(C)C(=O)Nc1cccc(-c2nc3ccccc3[nH]2)c1 | -7.63
44 | Cc1ccccc1CN1CCNC(=O)C1CC(=O)O (centres unmarked) | 3.55
45 | CN(c1ccc(C(=O)Nc2ccccc2C(=O)N2CCCC2)cc1)S(C)(=O)=O | 12.9
46 | Clc1ccccc1N=C1SCCS1 | 8.83
47 | CC1CN(C(=O)c2cnn3c(C(F)F)cc(-c4ccccc4)nc23)CC(C)O1 (centres unmarked) | -17.3
48 | O=c1c2ccccc2nc(/C=C/c2cc(Br)ccc2O)n1CCO | 4.85
49 | CC1CCN(S(=O)(=O)c2cnc(Cl)c(Br)c2)CC1 | 6.4
50 | Cc1cc(C)nc(SCC(=O)n2c3c(c4ccccc42)CCCC3)n1 | 17
51 | Cc1csc(N(C(=O)CCNC(=O)c2ccc([N+](=O)[O-])cc2)c2ccccc2)n1 | -45.2
52 | Br.COc1ccc(C(=O)CN(Cc2ccccc2)C2=NCCS2)cc1 | -35.6
53 | COC(=O)c1ccccc1CON1C(=O)C(C)(C)N(OCc2ccccc2C(=O)OC)C(=O)C1(C)C | -8.86
54 | NC(=O)CC(NC(=O)Cc1ccc(Br)cc1)c1ccc(NCCc2ccccc2F)c([N+](=O)[O-])c1 (centres unmarked) | -0.447
55 | O=c1[nH]c2cc3c(cc2cc1CN(Cc1ccc2c(c1)OCO2)Cc1nnnn1CC1CCCO1)OCO3 (centres unmarked) | 3.61
56 | O=C(CN1CCCC1)Nc1ccc(NC(=O)Nc2ccccc2Cl)cc1 | -21.5
